Laboratory results taken from publication PMC6919601, “Identification of Plasmodium dipeptidyl aminopeptidase allosteric inhibitors by high throughput screening” (PLoS ONE, 2019).
The campaign covered roughly 110,000 compounds. About 230 (0.21%) showed an effect of 50% or more. This is one part of the list.
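Note: 30 min substrate incubation versus DMSO and 10 µM JCP410 controls.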

What follows are molecules tested against DPAP1 (Plasmodium falciparum, UniProt Q8IIJ9) (assay: primary screen, percent inhibition; read by cleavage of a fluorogenic dipeptide substrate; higher = more effect of the substance).
DPAP1, sequence (Q8IIJ9 whole entry, looked up): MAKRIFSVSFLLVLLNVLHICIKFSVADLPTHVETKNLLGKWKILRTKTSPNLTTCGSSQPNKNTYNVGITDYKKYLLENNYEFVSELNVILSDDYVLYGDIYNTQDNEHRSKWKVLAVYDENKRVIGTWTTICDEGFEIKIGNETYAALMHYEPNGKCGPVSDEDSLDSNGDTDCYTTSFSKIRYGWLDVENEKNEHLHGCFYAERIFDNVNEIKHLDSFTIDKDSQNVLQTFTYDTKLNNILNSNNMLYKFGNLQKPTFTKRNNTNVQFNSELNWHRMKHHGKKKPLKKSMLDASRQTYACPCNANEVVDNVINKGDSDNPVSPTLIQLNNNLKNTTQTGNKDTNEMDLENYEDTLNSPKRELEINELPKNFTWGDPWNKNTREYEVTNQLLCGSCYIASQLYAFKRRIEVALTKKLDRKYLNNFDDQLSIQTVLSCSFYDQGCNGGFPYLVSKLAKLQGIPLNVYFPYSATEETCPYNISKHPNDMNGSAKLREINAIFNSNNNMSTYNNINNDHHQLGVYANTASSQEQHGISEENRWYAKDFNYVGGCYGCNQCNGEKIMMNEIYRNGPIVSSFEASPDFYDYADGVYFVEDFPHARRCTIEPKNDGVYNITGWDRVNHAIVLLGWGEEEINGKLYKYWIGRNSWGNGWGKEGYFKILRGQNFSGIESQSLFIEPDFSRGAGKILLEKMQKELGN
Parameters: species or system P. falciparum D10 trophozoite lysates; single well
With `Cc1cc(Cl)ccc1OCC(=O)NC(C)C1CC2CCC1C2` (centres unmarked) the “% Inhibition @ 10 uM” value was -6.65%. `CNc1ccccc1-c1nc2cc3ccccc3cc2n(C)c1=O` was tested, and the “% Inhibition @ 10 uM” value was -1.07%. For `CC1CCC(NC2CCN(Cc3ccccc3)CC2)CC1` (centres unmarked), the “% Inhibition @ 10 uM” value was -4.75%. In the case of `COc1ccc(-c2nc3s/c(=C\C4=Cc5ccccc5OC4)c(=O)n3n2)cc1`, the “% Inhibition @ 10 uM” value is reported as -1.52%. For `CC1NC(=O)N(C)C2NC(=O)N(C)C(c3ccccc3)C12` (centres unmarked), the “% Inhibition @ 10 uM” value was 2.26%. In the case of `COc1ccc(C(=O)NC2CCCCC2)cc1S(=O)(=O)N1CCOCC1`, the “% Inhibition @ 10 uM” value is reported as 16.8%. With `CC(NC(=O)C(C)n1c2ccccc2c2cnn(C)c(=O)c21)c1ccccc1` (centres unmarked) the “% Inhibition @ 10 uM” value was 1.38%. For `N#CC1=C(SCC(N)=O)NC(=O)CC1c1ccc(Cl)cc1` (centres unmarked), the “% Inhibition @ 10 uM” value was 4.11%. `Cc1nn(CC(=O)Nc2nc3ccccc3s2)c(C)c1Cl` was tested, and the “% Inhibition @ 10 uM” value was 2.62%. `O=C(CN1CCOCCOCCOCCOCC1)Nc1ccccc1` was tested, and the “% Inhibition @ 10 uM” value was -8.37%. With `CS(=O)(=O)N(CCc1ccccc1)CC(=O)Nc1ccc2c(c1)OCCO2` the “% Inhibition @ 10 uM” value was 5.17%. For `CC(=O)c1ccc(N2CCN(Cc3ccccc3C(F)(F)F)CC2)cc1`, the “% Inhibition @ 10 uM” value was -2.02%. With `CCOc1ccc(C(=O)Nc2nnc(CC)s2)cc1Cl` the “% Inhibition @ 10 uM” value was 10.6%. In the case of `Cc1cc(C(NC(C)(C)C)C(=O)O)cc(C)c1O` (centres unmarked), the “% Inhibition @ 10 uM” value is reported as 5.42%. With `c1ccc2c(CCNCc3ccc4c(c3)OCO4)c[nH]c2c1` the “% Inhibition @ 10 uM” value was 0.147%. With `CC(C)Oc1ccc(CNC(=O)CCn2cccn2)cc1` the “% Inhibition @ 10 uM” value was -1.38%. For `COC(=O)c1ccc(C2CC(=O)NC3=C2C(=O)CC(c2cccs2)C3)cc1` (centres unmarked), the “% Inhibition @ 10 uM” value was 2.54%. With `Cc1cc(C)c(OCC(=O)N2CCCC(C)C2)c(C)c1` (centres unmarked) the “% Inhibition @ 10 uM” value was -3.25%. For `Cc1ccc2c(Cl)c(C(=O)N(Cc3cccs3)C3CCS(=O)(=O)C3)sc2c1` (centres unmarked), the “% Inhibition @ 10 uM” value was 0.413%. For `CSc1ccc(C2C(C#N)=C(N)Oc3cc(C)oc(=O)c32)cc1` (centres unmarked), the “% Inhibition @ 10 uM” value was -2.32%. `CCOC(=O)c1c(NC(=O)COc2ccc(C(C)(C)C)cc2)sc2c1CCC2` was tested, and the “% Inhibition @ 10 uM” value was -0.769%. For `O=C(Nc1cc(-c2ccccc2)sc1C(=O)O)c1cccc(Cl)c1`, the “% Inhibition @ 10 uM” value was 2.84%. With `COc1ccc(N2CCN(Cc3cc(OC)cc(OC)c3)CC2)cc1` the “% Inhibition @ 10 uM” value was 3.65%. For `CC(C)C[C@H](NC(=O)OCc1ccccc1)C(=O)NC1(C#N)CCSCC1`, the “% Inhibition @ 10 uM” value was 0.173%. In the case of `CCOC(=O)c1cc(-c2ccc(C)cc2)n(CC(=O)NCC2COc3ccccc3O2)c1C` (centres unmarked), the “% Inhibition @ 10 uM” value is reported as 4.88%. For `O=[N+]([O-])c1cc2c(s1)CCCC/C2=N\O`, the “% Inhibition @ 10 uM” value was -2.7%. `Cc1cc(C)n(Cc2ccc(C(=O)N3N=C(C(F)F)CC3(O)C(F)F)o2)n1` (centres unmarked) was tested, and the “% Inhibition @ 10 uM” value was -2.85%. With `Cc1nc(SC(C)C(=O)O)nc(O)c1Cc1ccccc1` (centres unmarked) the “% Inhibition @ 10 uM” value was 0.658%. For `CNC(=O)CN1C(=O)CSc2c1c(C)nn2-c1ccccc1`, the “% Inhibition @ 10 uM” value was -0.477%. In the case of `Clc1ccc(-c2cc[nH]n2)cc1`, the “% Inhibition @ 10 uM” value is reported as -0.447%. With `CCCC(=O)Nc1ccc(C(=O)Nc2ccccc2C(F)(F)F)cc1` the “% Inhibition @ 10 uM” value was -0.545%. With `CC(Nc1cc(N2CCOCC2)ccc1[N+](=O)[O-])C12C[C@H]3C[C@@H](C1)C[C@@H](C2)C3` (some centres unmarked) the “% Inhibition @ 10 uM” value was -0.436%. For `CC1=CC2=NC(=O)/C(=C\c3ccc(OCCOc4ccc(C)c(C)c4)c(Cl)c3)C(=N)N2O1`, the “% Inhibition @ 10 uM” value was -5.1%. For `CCOC(=O)c1cnn(CCOC(=O)c2cccc(F)c2)c1NC(=O)c1cccc(F)c1`, the “% Inhibition @ 10 uM” value was -1.21%. In the case of `CCOc1ccccc1NC(=O)COc1ccc(Cl)cc1Cl`, the “% Inhibition @ 10 uM” value is reported as 3.29%. In the case of `COc1cc(C=C2C(=O)c3ccccc3C2=O)ccc1O`, the “% Inhibition @ 10 uM” value is reported as -1.77%. `COC(=O)c1cnn2c(O)c(Cc3ccccc3Cl)c(C)nc12` was tested, and the “% Inhibition @ 10 uM” value was -2.14%. In the case of `N#C/C(=C\c1ccccc1Cl)c1nc(-c2ccc(Cl)cc2)cs1`, the “% Inhibition @ 10 uM” value is reported as -1.97%. `Cc1ccc(-c2c(C)c(-c3ccccc3)nc(N)c2C#N)o1` was tested, and the “% Inhibition @ 10 uM” value was -1.33%. For `COc1cc(C(=O)Nc2ccc(Cl)cc2)cc(OC)c1OC`, the “% Inhibition @ 10 uM” value was 0.231%. For `O=C(NCCCn1ccnc1)c1cc2nc(-c3ccc(Br)cc3)cc(C(F)(F)F)n2n1`, the “% Inhibition @ 10 uM” value was -1.37%. `CC(=O)c1ccc(N2CCN(C(=O)c3cc(F)c(F)cc3Br)CC2)c(F)c1` was tested, and the “% Inhibition @ 10 uM” value was 3.29%. `Cc1ccc(-c2cc(C(F)F)n3ncc(C(=O)NC(C)c4ccccc4)c3n2)cc1` (centres unmarked) was tested, and the “% Inhibition @ 10 uM” value was 0.778%. For `COc1ccc(C2OC(=O)Cc3cc(OC)c(OC)cc32)cc1` (centres unmarked), the “% Inhibition @ 10 uM” value was 3.42%. With `COc1ccccc1OCc1ccc(C(=O)N2CCc3ccccc3C2)o1` the “% Inhibition @ 10 uM” value was -3.13%. With `CCCCN1Cc2c(sc3c2CCCC3)N(C(C)=O)C1` the “% Inhibition @ 10 uM” value was 4.98%. With `Cc1ccccc1-c1nc2sc3c(c2c(=O)o1)CCCC3` the “% Inhibition @ 10 uM” value was -3.5%. With `CCc1c(C)c(C#N)c2nc3ccccc3n2c1N(C)C` the “% Inhibition @ 10 uM” value was -3.23%. With `COc1cccc(/C=C2\SC(=O)NC2=O)c1OCc1ccc(C(=O)O)cc1` the “% Inhibition @ 10 uM” value was -4.43%. For `OCCN1c2ccccc2CCc2ccccc21`, the “% Inhibition @ 10 uM” value was -5.14%.
